# Source: the supplement of paper PMC3334620
# The full ranking holds about 33,000 sequences; the median of “E-score (-0.5 to 0.5)” is about -0.036, and the highest 2% start at about 0.37. Some of the results follow.
# Target: T1, Yer064c (UniProt P40041)
# T1 sequence: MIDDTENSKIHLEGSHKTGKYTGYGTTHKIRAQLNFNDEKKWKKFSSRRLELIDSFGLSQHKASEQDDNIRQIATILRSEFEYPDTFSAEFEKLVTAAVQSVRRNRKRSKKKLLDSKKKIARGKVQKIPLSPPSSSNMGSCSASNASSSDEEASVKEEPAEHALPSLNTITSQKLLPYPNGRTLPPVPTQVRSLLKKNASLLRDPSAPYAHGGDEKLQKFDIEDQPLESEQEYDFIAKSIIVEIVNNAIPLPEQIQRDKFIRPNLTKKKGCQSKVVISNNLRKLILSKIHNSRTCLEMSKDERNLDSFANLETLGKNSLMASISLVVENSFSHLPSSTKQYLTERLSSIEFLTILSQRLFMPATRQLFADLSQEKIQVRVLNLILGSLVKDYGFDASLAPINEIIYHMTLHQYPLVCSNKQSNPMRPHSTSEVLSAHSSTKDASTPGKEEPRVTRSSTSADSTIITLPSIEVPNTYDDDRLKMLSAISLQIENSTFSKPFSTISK
# Test: PBM E-score (8-mer binding enrichment) (E-score (-0.5 to 0.5)); higher = stronger / more preferred TF binding; most listed sequences are background and not binding sites
# Settings: protein concentration: 200 nM; construct: GST-full length
# Procedure, shortened: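 Using PURExpress in vitro transcription/translation, GST-tagged yeast transcription factors were made in full-length or DNA-binding-domain form. These were applied at about 100-200 nM to double-stranded universal all-10-mer Agilent arrays, and bound protein was detected with fluorescent anti-GST. Scans were normalised with masliner before the Universal PBM Analysis Suite assigned E-scores to ungapped eight-base words pooled with their reverse complements.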
row,Sequence,PBM E-score
1,CAAGATTA,0.199
2,CTTGTCTC,-0.0452
3,CCATGCTC,-0.0657
4,CTCTGTGC,-0.219
5,CAAAAGAA,0.0512
6,CAAAGCAG,0.0146
7,CGGTATCA,0.0688
8,CCAACGGG,-0.238
9,AGAACATG,-0.0407
10,GACGTCCC,-0.291
11,AGGTCGGA,-0.2
12,CATGTATC,-0.0361
13,TGCTTAAA,-0.0449
14,GCCCTTCA,-0.0187
15,ATTTACTC,0.133
16,TAAACCAA,-0.0214
17,AGCGTAAT,-0.0242
18,CGGCTGCC,-0.167
19,TCCAGTCA,0.307
20,GATTTAGC,0.185
21,ACGGGCCG,-0.147
22,AGGATGTG,0.111

row,Sequence,PBM E-score
1,ATAGACAT,0.219
2,CTTCGGCC,-0.0947
3,GCATGACA,0.0053
4,GGAGACCC,-0.16
5,GATTGCCA,0.0112
6,CTGCGTTA,0.0866
7,AACCAAAT,0.1
8,ATCCACAG,-0.0767
9,ATTATGAG,0.23
10,AGTAGGGG,-0.22
11,AGTCTTCA,0.408
12,AACGAGGC,-0.262
13,AAAGTTGT,-0.0817
14,GAGCAACC,0.0134
15,GGCTGTGA,0.0418
16,CGAACGGC,-0.0963
17,ATTAGACG,0.0361
18,ATTGAATA,0.169
19,AGTACAAC,0.177
20,CACTAGGG,-0.189
21,GGACACAC,-0.0288
22,CGAGCGCG,-0.127

row,Sequence,PBM E-score
1,ACTCAGGG,0.311
2,CCTAGTTC,-0.208
3,AAGTATAG,-0.187
4,CAATGCGG,-0.111
5,AGCTACCT,-0.0961
6,TCTGGGAA,0.121
7,ACTCGTCG,0.204
8,TATTTTCA,-0.0316
9,ATTGCGAG,0.0622
10,AATCGACA,0.0126
11,ATGTCATA,0.013
12,CACACCAA,0.0298
13,GCCACCAA,-0.0957
14,AGCTTTTG,0.0281
15,TCGTCGAA,0.122
16,CTGCTCCA,-0.161
17,GTTCTAGA,0.009
18,AATTACGA,0.101
19,CCTTGACG,-0.196
20,GAGTCTTA,0.453
21,GGTCTCCA,-0.222
22,AGCCGCGC,-0.141

row,Sequence,PBM E-score
1,CCATGACC,-0.0318
2,AGAGCGTG,-0.154
3,CTTATCTA,-0.00823
4,ATGCGAAA,0.111
5,CACAAGGG,-0.265
6,AGGTGGCC,-0.306
7,ATAAGTAG,0.0508
8,AGTGGGAC,-0.131
9,ACACAGGT,0.0662
10,AATGAAGA,0.158
11,AGATGCCA,-0.0598
12,CCTTCCAG,-0.19
13,GGCCCGCA,-0.141
14,GATCCGAA,-0.156
15,AGAGGTAA,0.0179
16,TATGATCA,0.263
17,ATGGAACA,-0.0445
18,AGGGAAAC,-0.00906
19,CGTTAAAC,-0.0127
20,CACTAAAA,0.02
